Measured values published in article PMC4565672.
No constants are given. Whether binding was seen depends on the method and setting. Binding seen in cells or lysates may run through a third protein. Some results given as binding are weak or reduced against the parent protein; the word gives no strength. For some of these results: Tags and fused reporters may be left off the sequences shown.

Amino acid sequences for entries named in this document (tags omitted). A change or cut given only in a name is not applied to a line headed by its entry. Residues count along the entry.
UniProt Q5S007: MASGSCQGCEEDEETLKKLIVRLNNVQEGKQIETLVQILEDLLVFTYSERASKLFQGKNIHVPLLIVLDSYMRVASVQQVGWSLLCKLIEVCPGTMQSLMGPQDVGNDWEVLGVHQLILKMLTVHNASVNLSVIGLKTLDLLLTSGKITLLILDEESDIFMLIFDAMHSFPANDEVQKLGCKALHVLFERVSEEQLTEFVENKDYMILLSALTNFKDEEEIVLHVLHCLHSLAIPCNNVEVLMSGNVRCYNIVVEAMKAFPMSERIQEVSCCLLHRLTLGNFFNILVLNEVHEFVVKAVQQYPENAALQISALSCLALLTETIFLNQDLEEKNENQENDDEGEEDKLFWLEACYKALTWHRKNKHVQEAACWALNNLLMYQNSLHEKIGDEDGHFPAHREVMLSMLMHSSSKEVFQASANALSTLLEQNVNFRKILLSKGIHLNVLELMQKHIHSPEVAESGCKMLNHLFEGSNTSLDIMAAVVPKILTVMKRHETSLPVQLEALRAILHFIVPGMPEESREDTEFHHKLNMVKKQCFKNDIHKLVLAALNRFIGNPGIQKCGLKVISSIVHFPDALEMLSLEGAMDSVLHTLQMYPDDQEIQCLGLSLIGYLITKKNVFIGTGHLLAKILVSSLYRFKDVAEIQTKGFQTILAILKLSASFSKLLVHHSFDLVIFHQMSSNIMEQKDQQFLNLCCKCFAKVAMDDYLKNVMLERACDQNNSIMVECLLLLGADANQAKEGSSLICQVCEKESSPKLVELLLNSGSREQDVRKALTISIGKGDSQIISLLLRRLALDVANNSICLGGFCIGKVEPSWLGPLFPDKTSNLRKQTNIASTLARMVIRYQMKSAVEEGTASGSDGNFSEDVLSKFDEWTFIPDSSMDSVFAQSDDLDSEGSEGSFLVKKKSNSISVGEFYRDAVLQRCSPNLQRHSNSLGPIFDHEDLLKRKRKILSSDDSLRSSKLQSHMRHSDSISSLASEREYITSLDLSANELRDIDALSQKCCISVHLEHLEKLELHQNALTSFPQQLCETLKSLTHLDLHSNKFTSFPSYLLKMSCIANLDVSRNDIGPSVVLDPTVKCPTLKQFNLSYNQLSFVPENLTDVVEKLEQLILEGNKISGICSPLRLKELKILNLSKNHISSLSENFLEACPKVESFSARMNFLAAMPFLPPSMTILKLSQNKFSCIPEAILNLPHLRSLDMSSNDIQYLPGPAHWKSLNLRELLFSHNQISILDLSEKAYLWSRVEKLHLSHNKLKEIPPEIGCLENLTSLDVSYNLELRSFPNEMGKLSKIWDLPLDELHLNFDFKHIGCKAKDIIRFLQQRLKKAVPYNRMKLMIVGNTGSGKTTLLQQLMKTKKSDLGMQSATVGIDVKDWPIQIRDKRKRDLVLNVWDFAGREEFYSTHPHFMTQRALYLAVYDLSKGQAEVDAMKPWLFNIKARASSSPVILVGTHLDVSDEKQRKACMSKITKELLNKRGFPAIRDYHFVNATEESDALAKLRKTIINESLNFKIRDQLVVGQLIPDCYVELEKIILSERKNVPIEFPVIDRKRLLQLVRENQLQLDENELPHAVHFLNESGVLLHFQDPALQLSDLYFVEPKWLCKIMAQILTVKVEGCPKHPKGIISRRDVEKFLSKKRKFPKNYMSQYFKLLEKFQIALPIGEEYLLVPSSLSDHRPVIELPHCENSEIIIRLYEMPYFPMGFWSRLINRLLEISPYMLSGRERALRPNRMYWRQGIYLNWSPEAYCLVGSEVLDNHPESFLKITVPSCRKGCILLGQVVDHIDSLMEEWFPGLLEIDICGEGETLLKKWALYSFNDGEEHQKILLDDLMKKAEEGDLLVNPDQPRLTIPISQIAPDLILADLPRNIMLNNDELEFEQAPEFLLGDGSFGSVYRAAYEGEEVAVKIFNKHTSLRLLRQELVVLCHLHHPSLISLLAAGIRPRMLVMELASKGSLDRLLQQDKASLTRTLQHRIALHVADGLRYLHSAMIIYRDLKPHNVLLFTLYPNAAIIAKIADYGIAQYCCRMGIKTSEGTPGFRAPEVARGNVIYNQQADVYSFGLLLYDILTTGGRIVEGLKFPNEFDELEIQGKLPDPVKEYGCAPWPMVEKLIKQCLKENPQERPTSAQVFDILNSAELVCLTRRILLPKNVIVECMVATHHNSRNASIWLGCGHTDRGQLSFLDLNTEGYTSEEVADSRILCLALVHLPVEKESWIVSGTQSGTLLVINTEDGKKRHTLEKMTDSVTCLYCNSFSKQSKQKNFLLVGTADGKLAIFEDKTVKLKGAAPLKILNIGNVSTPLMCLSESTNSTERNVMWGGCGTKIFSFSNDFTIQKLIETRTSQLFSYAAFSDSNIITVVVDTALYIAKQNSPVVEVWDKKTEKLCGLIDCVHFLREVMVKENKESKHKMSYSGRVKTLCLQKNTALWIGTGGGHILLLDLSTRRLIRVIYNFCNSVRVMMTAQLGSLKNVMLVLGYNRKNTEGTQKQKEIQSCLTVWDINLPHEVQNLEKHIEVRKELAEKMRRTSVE
UniProt P97677, residues 18-714: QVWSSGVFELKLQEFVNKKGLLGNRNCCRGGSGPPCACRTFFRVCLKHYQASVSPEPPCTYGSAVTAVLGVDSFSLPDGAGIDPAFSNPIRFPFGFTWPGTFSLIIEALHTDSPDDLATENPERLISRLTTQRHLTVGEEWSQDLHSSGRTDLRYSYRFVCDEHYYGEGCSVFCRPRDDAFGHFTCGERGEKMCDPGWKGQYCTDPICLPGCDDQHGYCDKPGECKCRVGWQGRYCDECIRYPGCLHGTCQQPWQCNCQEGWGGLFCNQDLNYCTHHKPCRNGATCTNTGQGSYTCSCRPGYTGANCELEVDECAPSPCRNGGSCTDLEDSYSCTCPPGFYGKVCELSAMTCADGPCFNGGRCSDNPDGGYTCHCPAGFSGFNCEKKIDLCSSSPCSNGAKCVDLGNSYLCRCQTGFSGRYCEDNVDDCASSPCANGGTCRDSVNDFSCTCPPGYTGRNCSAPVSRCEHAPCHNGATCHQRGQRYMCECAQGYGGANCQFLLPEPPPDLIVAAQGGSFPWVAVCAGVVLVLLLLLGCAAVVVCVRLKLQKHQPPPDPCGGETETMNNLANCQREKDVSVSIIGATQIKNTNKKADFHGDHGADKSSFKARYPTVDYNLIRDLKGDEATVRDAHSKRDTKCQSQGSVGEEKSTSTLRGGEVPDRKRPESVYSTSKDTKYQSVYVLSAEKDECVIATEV
UniProt Q96JN8: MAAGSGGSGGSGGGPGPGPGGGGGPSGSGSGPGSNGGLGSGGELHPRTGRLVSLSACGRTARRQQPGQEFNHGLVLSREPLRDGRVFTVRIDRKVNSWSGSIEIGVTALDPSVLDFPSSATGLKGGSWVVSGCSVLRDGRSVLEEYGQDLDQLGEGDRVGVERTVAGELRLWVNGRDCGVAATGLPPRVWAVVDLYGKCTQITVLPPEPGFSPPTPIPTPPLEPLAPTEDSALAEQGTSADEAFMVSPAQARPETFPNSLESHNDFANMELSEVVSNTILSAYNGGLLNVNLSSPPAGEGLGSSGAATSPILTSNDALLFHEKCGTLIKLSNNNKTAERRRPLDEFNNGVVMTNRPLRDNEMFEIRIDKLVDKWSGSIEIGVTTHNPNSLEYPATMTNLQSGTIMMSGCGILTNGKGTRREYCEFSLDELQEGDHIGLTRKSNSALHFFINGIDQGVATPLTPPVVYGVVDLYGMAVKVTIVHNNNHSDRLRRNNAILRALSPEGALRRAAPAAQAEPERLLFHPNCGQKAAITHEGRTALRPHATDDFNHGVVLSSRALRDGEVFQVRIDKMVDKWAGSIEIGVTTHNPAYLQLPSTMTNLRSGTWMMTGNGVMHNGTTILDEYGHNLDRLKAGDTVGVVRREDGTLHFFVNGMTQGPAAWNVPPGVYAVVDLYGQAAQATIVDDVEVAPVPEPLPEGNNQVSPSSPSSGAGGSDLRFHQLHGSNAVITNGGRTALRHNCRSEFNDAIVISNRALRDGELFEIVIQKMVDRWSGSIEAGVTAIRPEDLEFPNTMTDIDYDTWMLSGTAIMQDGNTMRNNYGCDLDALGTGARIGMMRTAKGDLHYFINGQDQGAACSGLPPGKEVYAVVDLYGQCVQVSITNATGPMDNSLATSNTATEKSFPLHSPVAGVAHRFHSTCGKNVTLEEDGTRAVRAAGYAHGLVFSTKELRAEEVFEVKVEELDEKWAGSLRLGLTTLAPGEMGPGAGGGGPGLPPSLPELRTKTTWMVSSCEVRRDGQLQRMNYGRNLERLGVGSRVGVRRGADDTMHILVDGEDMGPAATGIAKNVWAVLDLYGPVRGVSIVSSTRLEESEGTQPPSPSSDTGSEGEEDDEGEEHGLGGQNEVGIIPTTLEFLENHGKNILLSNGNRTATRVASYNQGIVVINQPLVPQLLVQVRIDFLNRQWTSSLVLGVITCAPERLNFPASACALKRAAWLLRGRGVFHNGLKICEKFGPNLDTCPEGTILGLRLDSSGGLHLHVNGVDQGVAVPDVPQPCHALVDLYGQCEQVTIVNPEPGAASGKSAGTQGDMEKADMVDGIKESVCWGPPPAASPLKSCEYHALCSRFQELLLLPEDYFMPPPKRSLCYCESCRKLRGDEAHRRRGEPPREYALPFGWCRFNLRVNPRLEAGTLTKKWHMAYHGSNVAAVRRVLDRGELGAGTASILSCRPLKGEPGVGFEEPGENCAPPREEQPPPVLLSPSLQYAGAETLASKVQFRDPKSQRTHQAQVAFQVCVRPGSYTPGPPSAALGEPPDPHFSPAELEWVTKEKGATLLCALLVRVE
UniProt Q5NCX5: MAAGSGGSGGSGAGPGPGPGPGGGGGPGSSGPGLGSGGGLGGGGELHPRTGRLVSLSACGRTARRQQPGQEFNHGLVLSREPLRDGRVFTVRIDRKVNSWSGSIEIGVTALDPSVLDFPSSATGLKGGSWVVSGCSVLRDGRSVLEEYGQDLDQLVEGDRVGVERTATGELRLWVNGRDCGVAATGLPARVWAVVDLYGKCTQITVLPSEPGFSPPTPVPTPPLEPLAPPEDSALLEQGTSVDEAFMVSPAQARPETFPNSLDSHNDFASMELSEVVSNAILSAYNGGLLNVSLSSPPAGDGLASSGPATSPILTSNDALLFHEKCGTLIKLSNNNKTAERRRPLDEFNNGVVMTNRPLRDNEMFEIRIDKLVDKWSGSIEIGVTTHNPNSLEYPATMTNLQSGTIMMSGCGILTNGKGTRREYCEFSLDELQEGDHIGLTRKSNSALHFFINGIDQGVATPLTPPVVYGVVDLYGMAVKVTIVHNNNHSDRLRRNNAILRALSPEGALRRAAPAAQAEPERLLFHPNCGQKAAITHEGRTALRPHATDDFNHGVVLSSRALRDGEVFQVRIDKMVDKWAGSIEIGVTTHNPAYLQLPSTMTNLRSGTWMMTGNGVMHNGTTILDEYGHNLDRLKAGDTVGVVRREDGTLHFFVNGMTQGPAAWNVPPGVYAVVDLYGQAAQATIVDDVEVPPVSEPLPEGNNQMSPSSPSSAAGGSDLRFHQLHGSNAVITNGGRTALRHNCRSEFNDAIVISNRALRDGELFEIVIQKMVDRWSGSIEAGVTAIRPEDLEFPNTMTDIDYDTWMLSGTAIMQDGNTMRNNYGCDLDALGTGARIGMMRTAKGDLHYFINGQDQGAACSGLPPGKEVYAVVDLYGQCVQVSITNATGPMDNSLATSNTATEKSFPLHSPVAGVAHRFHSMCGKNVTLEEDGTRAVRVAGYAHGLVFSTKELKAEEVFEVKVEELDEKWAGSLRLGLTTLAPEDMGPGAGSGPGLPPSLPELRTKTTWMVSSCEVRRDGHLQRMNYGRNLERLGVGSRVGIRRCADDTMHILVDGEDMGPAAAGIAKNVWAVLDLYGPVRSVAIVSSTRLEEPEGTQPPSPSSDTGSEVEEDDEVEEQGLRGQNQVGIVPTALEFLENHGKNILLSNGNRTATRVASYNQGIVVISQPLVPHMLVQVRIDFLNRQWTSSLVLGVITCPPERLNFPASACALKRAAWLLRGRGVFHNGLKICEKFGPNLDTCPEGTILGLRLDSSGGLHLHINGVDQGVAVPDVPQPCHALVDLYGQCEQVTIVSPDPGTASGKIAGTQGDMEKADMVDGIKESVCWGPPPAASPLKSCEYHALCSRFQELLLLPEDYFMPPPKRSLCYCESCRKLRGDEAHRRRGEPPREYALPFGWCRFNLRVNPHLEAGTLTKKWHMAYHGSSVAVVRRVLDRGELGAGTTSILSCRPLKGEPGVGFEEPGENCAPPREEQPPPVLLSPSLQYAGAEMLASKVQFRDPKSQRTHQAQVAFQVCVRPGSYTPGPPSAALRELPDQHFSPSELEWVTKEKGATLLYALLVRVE

Key:
[1] = target: LRRK2 (endogenous, mouse brain) (mouse (endogenous in brain)) (UniProt Q5S006); test: co-IP; mouse brain lysates; immunoprecipitation with anti-LRRK2 (control: anti-dFoxO); Western blotting of endogenous proteins
[2] = target: FLAG-LRRK2 G2019S (human) (UniProt Q5S007); test: co-IP; HEK293T cells transfected with the indicated plasmids; RIPA buffer; anti-FLAG gel, 4°C for 3 h, five washes, eluted with 3x FLAG peptide; Western blotting
[3] = target: FLAG-LRRK2 R1398L (human) (UniProt Q5S007); test: as above
[4] = target: FLAG-LRRK2 R1441G (human) (UniProt Q5S007); test: as above
[5] = target: FLAG-LRRK2 T1348N (human) (UniProt Q5S007); test: as above
[6] = target: FLAG-tagged human LRRK2 (wild type) (human) (UniProt Q5S007); test: as above
LKB1-FLAG = target: T1, LKB1-FLAG (UniProt Q15831); test: as above
T1 sequence: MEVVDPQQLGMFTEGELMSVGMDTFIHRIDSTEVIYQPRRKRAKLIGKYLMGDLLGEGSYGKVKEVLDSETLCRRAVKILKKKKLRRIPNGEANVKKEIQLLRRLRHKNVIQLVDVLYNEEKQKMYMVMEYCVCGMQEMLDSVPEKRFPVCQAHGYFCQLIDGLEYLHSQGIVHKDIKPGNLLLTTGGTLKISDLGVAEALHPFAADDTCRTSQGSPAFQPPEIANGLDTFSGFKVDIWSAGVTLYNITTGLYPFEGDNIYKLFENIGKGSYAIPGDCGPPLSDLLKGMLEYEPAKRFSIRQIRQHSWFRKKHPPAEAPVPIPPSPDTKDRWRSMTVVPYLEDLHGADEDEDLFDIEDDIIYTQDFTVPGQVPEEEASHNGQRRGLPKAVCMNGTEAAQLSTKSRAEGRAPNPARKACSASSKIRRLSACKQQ

[7] = target: Delta-like 1 (Dll1), rat (rat) (UniProt P97677); test: as above
[8] = target: NEURL4 (transfected; tag not told for these experiments) (UniProt Q96JN8); test: as above

binding [6]	binding (LKB1-FLAG)	binding [7]	Substance	further results
			NEURL4 (endogenous, mouse brain) (from UniProt Q5NCX5 1-1563)	binding [1]: binds
binds	no binding		NEURL4 (endogenous, HEK293 cells) (from UniProt Q96JN8 1-1562)	binding [2]: binds; binding [3]: binds; binding [4]: binds; binding [5]: binds
binds		binds	NEURL4 (transfected; tag not told for these experiments) (from UniProt Q96JN8 1-1562)	
		binds	HERC2 (transfected; tag not told) (from UniProt O95714 1-4834)	
	no binding		HERC2 (endogenous, HEK293 cells) (from UniProt O95714 1-4834)	binding [8]: binds
binds			Myc-NEURL4 (from UniProt Q96JN8 1-1562)	
